# The whole screen tested about 310,000 compounds, of which about 2,200 (0.71%) showed an effect of 50% or more. The effect is printed as a negative number. Some of the results follow.
# Molecular target: human ether-à-go-go-related gene (hERG) potassium channel (human, UniProt Q12809)
# Test: primary screen, population patch clamp on CHO cells stably expressing hERG
# Chain of human ether-à-go-go-related gene (hERG) potassium channel (Q12809 whole entry, looked up): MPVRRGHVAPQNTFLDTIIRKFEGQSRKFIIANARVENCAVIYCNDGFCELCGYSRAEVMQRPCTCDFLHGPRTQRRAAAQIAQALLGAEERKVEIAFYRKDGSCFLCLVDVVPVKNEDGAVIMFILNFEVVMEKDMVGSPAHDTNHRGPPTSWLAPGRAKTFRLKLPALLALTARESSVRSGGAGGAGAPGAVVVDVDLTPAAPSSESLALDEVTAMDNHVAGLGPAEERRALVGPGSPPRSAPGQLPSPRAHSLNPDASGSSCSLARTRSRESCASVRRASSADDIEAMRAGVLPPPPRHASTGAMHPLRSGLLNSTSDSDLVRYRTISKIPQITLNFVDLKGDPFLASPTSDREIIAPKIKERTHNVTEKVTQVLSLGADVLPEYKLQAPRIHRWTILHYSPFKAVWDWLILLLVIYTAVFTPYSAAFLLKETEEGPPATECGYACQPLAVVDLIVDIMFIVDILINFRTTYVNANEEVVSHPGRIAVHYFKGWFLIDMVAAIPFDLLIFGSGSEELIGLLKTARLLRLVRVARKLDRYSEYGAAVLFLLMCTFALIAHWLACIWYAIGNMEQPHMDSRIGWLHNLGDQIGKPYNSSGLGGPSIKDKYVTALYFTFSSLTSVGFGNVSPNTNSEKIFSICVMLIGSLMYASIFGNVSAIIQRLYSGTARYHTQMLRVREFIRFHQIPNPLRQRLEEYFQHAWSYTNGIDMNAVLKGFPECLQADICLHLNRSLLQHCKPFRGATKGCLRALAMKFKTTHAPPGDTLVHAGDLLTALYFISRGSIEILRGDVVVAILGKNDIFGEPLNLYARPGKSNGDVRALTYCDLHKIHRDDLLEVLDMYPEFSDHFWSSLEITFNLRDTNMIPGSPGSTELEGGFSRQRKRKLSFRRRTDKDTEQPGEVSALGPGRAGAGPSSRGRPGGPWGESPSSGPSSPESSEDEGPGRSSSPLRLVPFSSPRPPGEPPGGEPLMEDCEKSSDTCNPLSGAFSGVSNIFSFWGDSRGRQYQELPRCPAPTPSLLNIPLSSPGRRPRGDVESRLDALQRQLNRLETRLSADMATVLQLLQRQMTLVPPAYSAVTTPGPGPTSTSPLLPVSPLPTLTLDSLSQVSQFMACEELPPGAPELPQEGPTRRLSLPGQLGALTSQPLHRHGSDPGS
row,Structure (SMILES),"hERG current change (%, negative = inhibition) at 1uM [%]"
1,Cc1ccnc(NS(=O)(=O)c2ccc(NC(=O)Cc3cccs3)cc2)n1,12.9
2,O=C(CCCN1C(=O)c2cccnc2C1=O)Nc1ccccc1F,12.3
3,CCCN(CC(=O)Nc1ccccc1OC)C(=O)c1ccc(S(=O)(=O)Nc2ccccc2)cc1,-18.8
4,CCOC(=O)c1c(NC(=O)CSc2nc3ccccc3s2)sc(C(C)=O)c1C,16.4
5,Cc1ccc(S(=O)(=O)N2CCCc3cc(NC(=O)c4c(F)cccc4F)ccc32)cc1,8.99
6,CCOC(=O)c1c(C)[nH]c(C(=O)OCc2ccccc2)c1C,14.7
7,CCOC(=O)c1cnc(SCC(=O)Nc2ccc(N3CCOCC3)cc2)nc1N,0.908
8,COc1ccc(N(CC(=O)Nc2cccnc2)S(=O)(=O)c2ccc(C)cc2)cc1Cl,9.86
9,O=C(COc1ccccc1C(=O)NCc1ccncc1)Nc1ccc(Br)cc1,6.07
10,CC1CCN(C(=O)CCCC(=O)O)CC1,19.2
11,COc1ccc(C2=NN(C(=O)CSc3ncccn3)C(c3ccc(C)cc3)C2)cc1 (centres unmarked),10.2
12,CC1CN(c2nc3ccccc3nc2SCC(=O)Nc2cccc(C(F)(F)F)c2)CC(C)O1 (centres unmarked),12.9
13,CCCN1C(=O)c2ccccc2NC1c1ccc(OC)cc1OC (centres unmarked),12.1
14,O=C(NCc1ccco1)c1cc2n(n1)C(C(F)(F)F)CC(c1ccc(F)cc1)N2 (centres unmarked),-4.18
15,O=C(Nc1n[nH]c(C(F)(F)F)n1)c1cccs1,10.2
16,CS(=O)(=O)c1ccc(S(=O)(=O)N2CCC(CO)(CCCc3ccccc3)CC2)cc1,4.47
17,C[C@H]1CC[C@]2(O[C@H](CCO)C[C@H](O)[C@H]2O)O1,15
18,COc1ccc(C(CNC(=O)CNC(=O)c2cccc(Cl)c2)N2CCCC2)cc1 (centres unmarked),2.3
19,O=c1cc(-c2ccc(Cl)c(Cl)c2)[nH][nH]1,16.9
20,O=C(N/N=C\c1ccco1)c1cncc(Br)c1,12.5
21,Cc1ccc(C)c(NC(=S)N2CCC(N(C)CC3CCCO3)CC2)c1 (centres unmarked),-0.457
22,c1cncc(N=c2scc(-c3cccc4ccccc34)n2CCCn2ccnc2)c1,-10.8
23,CC(=O)Nc1cccc(NC(=O)Nc2ccc(C)c(Cl)c2)c1,28.7

row,Structure (SMILES),"hERG current change (%, negative = inhibition) at 1uM [%]"
1,Cc1ccccc1C(=O)N1CCC(C(=O)Nc2nccs2)CC1,25
2,COc1ccc(NC(=O)Nc2cccc(C(=O)N3CCOCC3)c2)cc1OC,3.54
3,CN(C)S(=O)(=O)c1cccc(NC(=O)COC(=O)c2cccn2C)c1,-0.612
4,CC/C(=N\NC(=O)c1c(C)nc2ccccn12)c1ccccc1,21.8
5,CCCCc1nn2c(N)c(/C=C3\C=Nc4ccccc43)c(=O)nc2s1,2.67
6,O=C(Cc1ccc(-n2c(=S)[nH]c3ccccc3c2=O)cc1)N1CCC(N2CCCCC2)CC1,-9.55
7,COc1ccc(CNC(=O)C(=O)NCC2CCCN2S(=O)(=O)c2cccs2)cc1 (centres unmarked),5.93
8,Fc1cccc(Cl)c1CSc1nnc(-c2ccncc2)o1,5.59
9,Oc1csc(Cc2nc(-c3ccc4ccccc4c3)cs2)n1,4.67
10,COc1ccccc1NC(=O)C(NC(=O)OC(C)(C)C)C(C)OCc1ccccc1 (centres unmarked),7.77
11,CCC(C)Nc1nc(N)c([N+](=O)[O-])c(Nc2cc(OC)ccc2OC)n1 (centres unmarked),15.7
12,O=C(COC(=O)Cc1ccccc1F)Nc1ccc(F)cc1F,0.207
13,O=C(O)c1nn(-c2ccccc2)c(-c2ccccc2)c1C(=O)c1ccccc1,4.76
14,Cc1cc(C(F)(F)F)nc2c(Cl)c(C(C)(C)C)nn12,14
15,Cc1ccc2cc(COC(=O)c3ccncc3)c(=O)[nH]c2c1,-5.66
16,CCOc1ccc(C(c2c(NC(=O)c3ccccc3)sc(C)c2C)N2CCN(CCO)CC2)cc1 (centres unmarked),4.97
17,Cc1cc(C)nc(NN2C(=O)/C(=C/c3ccc(O)cc3)SC2=S)n1,-5.35
18,CC(=O)Nc1ccc(/C(C)=N/NC(=O)C2CC2c2ccccc2)cc1 (centres unmarked),4.99
19,CCOc1ccc2cc(C3CC(c4ccco4)=NN3S(C)(=O)=O)c(Cl)nc2c1 (centres unmarked),16.5
20,COc1ccc(CCNC(=O)CNC(=O)c2ccccc2Br)cc1OC,7.7
21,CC1CCN(S(=O)(=O)c2ccc(S(=O)(=O)NCC3COCCO3)cc2)CC1 (centres unmarked),11.3
22,CCOC(=O)c1c(C)n(S(=O)(=O)c2ccc(C)cc2)c2ccc(O)c(C(=O)O)c12,-3.82
23,COc1ccc(-c2cn[nH]c2N)cc1OC,10.1

row,Structure (SMILES),"hERG current change (%, negative = inhibition) at 1uM [%]"
1,COc1ccc(NC(=O)c2cncc(Br)c2)c(S(=O)(=O)N2CCOCC2)c1,3.33
2,O=C(CCC1CCCN(C(=O)c2ccsc2)C1)N1CCN(c2ccccn2)CC1 (centres unmarked),2.84
3,COC(=O)c1c(NC(=O)c2ccoc2C)sc(C)c1C,12
4,COc1cccc(NC2=C(NCCO)C(=O)c3ccccc3C2=O)c1,9.03
5,Cc1c(Cl)cnc(NC(=O)COC(=O)c2cccc(S(=O)(=O)N3CCc4ccccc4C3)c2)c1Cl,13.5
6,CCN1CCN(c2ccc(S(=O)(=O)N3CCOCC3)cc2NC(=O)/C=C/c2ccc(C)cc2)CC1,-4.67
7,CCOC(=O)/C(=C\c1cccc(O)c1)c1nc2sc(C)c(C)c2c(=O)[nH]1,15.4
8,Cc1ccc(Oc2nc3c(c(=O)n(Cc4ccccc4F)c(=O)n3C)n2C)cc1,2.05
9,Cc1[nH]c(C)c2c(=O)n(-c3ccccc3)ncc12,11.1
10,Cc1ccc(NC(=S)NC(NC(=O)N(C)C)C(Cl)(Cl)Cl)cc1 (centres unmarked),11.2
11,CC(=O)C1=C(O)C(=O)N(CCCO)C1c1ccccc1 (centres unmarked),8.96
12,O=C(NCc1cccs1)C(Cc1ccccc1)n1cccc1 (centres unmarked),1.19
13,CC(NC(=O)Cc1ccsc1)c1ccc(Cl)cc1Cl (centres unmarked),21.9
14,COc1ccccc1C(=O)NNC(=O)c1cccc([N+](=O)[O-])c1,-4.17
15,NC(=O)CCn1cnc2ccccc21,10.9
16,COc1cccc(NC(=O)c2nnn(CCc3ccccc3)c2N)c1,-1.39
17,O=S(=O)(Nc1ccc(Cl)cn1)c1ccc2c(c1)OCCO2,-4.51
18,COc1ccc(CN(C)C(=O)COC(=O)c2c(C)nn(-c3ccc(F)cc3)c2Cl)cc1,-11.9
19,O=C(N/N=C/c1ccc([N+](=O)[O-])cc1)c1cc(-c2ccc3c(c2)OCO3)n[nH]1,10.8
20,COc1ccccc1-c1noc(-c2ccccc2)n1,17.2
21,COc1ccc(CC(=O)Nc2nnc(SCC(=O)NCc3ccco3)s2)cc1OC,13.4
22,FC(F)(F)c1nc(-c2ccccc2)ncc1-c1nnnn1-c1ccccc1,10.9
23,COc1ccc(Nc2cc(C)nc3nc(C)nn23)cc1Cl,-31.6

row,Structure (SMILES),"hERG current change (%, negative = inhibition) at 1uM [%]"
1,O=C(COc1ccc([N+](=O)[O-])cc1)Nc1cccc(C(=O)Nc2ccccc2C(=O)O)c1,10.5
2,CC(=O)N1CCSc2ccc(S(=O)(=O)NCCc3ccc(C)cc3)cc21,12.2
3,COc1ccccc1OCCNC(=O)C1CC(=O)N(Cc2ccc(C)cc2)C1 (centres unmarked),8.09
4,C=CCO/N=C(\C)c1c(O)c(C)c(-c2ccccc2)n(-c2ccccc2)c1=O,4.58
5,O=C(Cc1ccccc1)Oc1ccc(N2C(=O)CCC2=O)cc1,10.5
6,CC1=NN(C(N)=S)C(=O)C1N=Nc1ccc(Cl)cc1Cl (centres unmarked),11.9
7,COC(=O)CC(N)c1ccc(Br)cc1.Cl (centres unmarked),10.7
8,CN(C)c1nc(N(C)C)nc(N(C)C)n1,16.6
9,Fc1cc2nccnc2cc1N1CCSCC1,7.78
10,O=C1OCC(CO)(CO)N=C1NNc1ccccc1[N+](=O)[O-],7.8
11,COc1ccc(C(=O)COC(=O)c2ccc(Cl)nc2)c(OC)c1,7.9
12,O=C(CCCSc1nc2ccccc2s1)NCc1ccco1,9.87
13,COc1ccc(C(=O)Nc2nc3nccc(-c4ccccc4)n3n2)cc1,1.32
14,COc1ccc(OC)c(C2Nc3ccccc3NC3=C2C(=O)CC(C)(C)C3)c1 (centres unmarked),13.5
15,Cc1cccc(N(C)C(=O)CCS(=O)(=O)c2cc3c(cc2Cl)NC(=O)CO3)c1,-15.3
16,C[N+]1(CC(=O)OCCCc2ccccc2)CCOCC1.[I-],6.97
17,COC(=O)CSc1nnc(CSc2nc(C)cc(C)n2)o1,14
18,Cc1ccc(OCCC(=O)NNC(=O)c2nn(C)c(=O)c3ccccc23)cc1,0.0771
19,CC(C)(C)S(=O)c1cccs1 (centres unmarked),13.3
20,CCCc1nnc(NC(=O)c2cccnc2)s1,12.2

# — publication PMC4336329 (PLoS ONE, 2015)
